Assay results reported in PubChem BioAssay AID624417 (National Center for Advancing Translational Sciences (NCATS), 2012).
Hit rate of the full screen: of about 410,000 compounds, about 6,400 (1.6%) were called active. The shares of active, inactive and inconclusive entries below differ from those in the screen. Calls follow the shape of the dose curve; as a rule, active = well fitted inhibition curve with a large enough effect; inconclusive = small, poorly fitted or top-dose-only effect; inactive = no such curve, though single readings can be large or run the other way. No potency is given beside an inconclusive call; the fits are too rough.

Target: Glucagon-like peptide 1 receptor (Homo sapiens) (UniProt P43220)
Sequence of UniProt P43220 (P43220 whole entry, looked up): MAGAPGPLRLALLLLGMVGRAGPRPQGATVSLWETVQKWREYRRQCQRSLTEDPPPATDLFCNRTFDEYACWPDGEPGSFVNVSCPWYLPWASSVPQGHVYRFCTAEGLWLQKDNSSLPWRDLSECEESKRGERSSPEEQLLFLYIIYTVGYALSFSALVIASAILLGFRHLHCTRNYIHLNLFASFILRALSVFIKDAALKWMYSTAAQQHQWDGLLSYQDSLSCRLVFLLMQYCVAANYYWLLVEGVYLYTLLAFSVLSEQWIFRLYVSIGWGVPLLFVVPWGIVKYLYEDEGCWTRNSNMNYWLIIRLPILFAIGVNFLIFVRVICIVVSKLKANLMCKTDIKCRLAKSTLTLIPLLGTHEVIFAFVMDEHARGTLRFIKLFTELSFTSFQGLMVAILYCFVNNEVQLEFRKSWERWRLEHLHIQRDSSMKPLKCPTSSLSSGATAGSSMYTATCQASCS
Assay: qHTS of GLP-1 Receptor Inverse Agonists (Inhibition Mode); also: nearly all actives have a fitted effect of over 55% in size
Settings: HEK293 GLP-1R CRE-luciferase, luminescence, 24 h, GLP-1R form is constitutively active; activity change, negative = inhibition: at 38.3 µM (top of the series) unless noted
Procedure, shortened: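 Constitutively active GLP-1R drives a cAMP-responsive luciferase in stably transfected HEK293 cells; test compounds are added after overnight (12 h) attachment and left 24 hr, and signal loss in luminescence marks inhibition.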
% is scaled to controls: 0 for no effect and ±100 for the full control effect; potency is read from the fitted curve at half-maximal effect; tags tell the direction and shape of the fitted curve.

SMILES	Potency	activity change, negative = inhibition
CCc1cccc2c(C(=O)CSc3nncn3-c3ccc(OC)cc3)c[nH]c12	inconclusive [inhibitor, partial curve, poor fit]	–
CN(C(=O)Cn1c(=O)oc2cc(S(=O)(=O)N3CCCC3)ccc21)C1CCCCC1	inconclusive [inhibitor, partial curve, poor fit]	–
O=C(C[n+]1cnn(CC(=O)c2ccc(Cl)cc2Cl)c1)c1ccc([N+](=O)[O-])cc1	inconclusive [inhibitor, single point]	–
CCNC(=O)C1(C)CCCN(Cc2noc(-c3ccccc3OC)n2)C1 (stereo not drawn)	inactive	–
O=C(CSC1=Nc2ccccc2N=C(c2ccc(F)cc2)C1)Nc1cccc(C(F)(F)F)c1	inconclusive [inhibitor, partial curve, poor fit]	–
CCOC(=O)C1CCCN(C(=O)C2CCN(S(=O)(=O)c3c(C)noc3/C=C/c3ccccc3F)CC2)C1 (stereo not drawn)	inconclusive [inhibitor, single point]	–
CCc1ccc(NC(=O)CC2C(=O)N(c3cccc(C)c3)C(=O)N2CCC(C)C)cc1 (stereo not drawn)	inconclusive [inhibitor, single point]	–
COc1ccc2c(c1)c(C(O)CN1CCN(Cc3ccc4c(c3)OCO4)CC1)c(C)n2C (stereo not drawn)	inconclusive [inhibitor, partial curve, poor fit]	–
Cc1cc(C)c(C)c(OCC(=O)Nc2ccc(S(=O)(=O)Nc3nc(C)cc(C)n3)cc2)c1	inactive	–
COc1cc2c(cc1OC)C(C)N(S(=O)(=O)c1cccs1)CC2 (stereo not drawn)	inconclusive [inhibitor, single point]	–
Cc1ccccc1OCC(=O)OCc1cc(=O)n2nc(C3CC3)sc2n1	inactive	–
CCCn1cnc2c(SCCc3ccccc3)nc(N)nc21	inactive	–
COc1ccccc1NC(=O)CCn1nc(-c2ccccc2OC)c2c(C)cc(C)nc21	inconclusive [inhibitor, partial curve]	–
CSCc1c(C(=O)OCC(=O)c2ccc[nH]2)oc2ccccc12	inconclusive [inhibitor, partial curve, poor fit]	–
CCOC(=O)C1=C(C)N=c2s/c(=C\c3ccncc3)c(=O)n2C1c1ccc2c(c1)OCO2 (stereo not drawn)	inconclusive [inhibitor, partial curve, poor fit]	–
O=[N+]([O-])c1cc(Cl)c2cccnc2c1O	inactive	–
COc1ccc(N2CCN(c3oc(COc4ccc(Cl)cc4Cl)nc3C#N)CC2)cc1	inconclusive [inhibitor, partial curve, poor fit]	–
CCNC(=S)Nc1ccc(OCc2nc3ccccc3s2)cc1	inconclusive [inhibitor, single point]	–
O=C(CCCN1C(=O)c2cccc3cccc(c23)C1=O)N1CCN(c2ccc(F)cc2)CC1	inconclusive [inhibitor, single point]	–
O=C(c1ccccc1)N1CCN2C(=O)c3ccccc3C12c1ccc(Cl)cc1 (stereo not drawn)	inconclusive [inhibitor, single point]	–
CCN(CC)S(=O)(=O)c1ccc(C(=O)Nc2ccc(Cc3ccncc3)cc2)cc1	inconclusive [inhibitor, single point]	–

SMILES	Potency	activity change, negative = inhibition
OC(COc1ccc(OCC(O)CN2CCCCCC2)cc1)CN1CCCCCC1 (stereo not drawn)	inconclusive [inhibitor, partial curve, poor fit]	–
CN(Cc1cn(C)nc1-c1ccc(Oc2ccccc2)cc1)Cc1cnc2ccccn12	inconclusive [inhibitor, partial curve, poor fit]	–
Cc1ccc(C2(c3noc(CN(C)Cc4ccccn4)n3)CCCC2)cc1	inconclusive [inhibitor, single point]	–
COc1ccc2nc(SCC(=O)Nc3ccc4c(c3)OCCO4)[nH]c2c1	inconclusive [inhibitor, partial curve, poor fit]	–
O=C(NC1CCCC1)C(c1ccco1)N1CCN(c2c(Cl)cncc2Cl)CC1 (stereo not drawn)	inactive	–
CN1N=C2c3ccccc3CCCC2C1c1ccc(F)cc1 (stereo not drawn)	active: 7.08 µM	–
Cc1c(C#N)c2ccccc2n1CC(=O)N1CCc2ccccc2C1	inconclusive [inhibitor, partial curve, poor fit]	–
O=C(CC(=O)NCc1ccc(Cl)cc1)NCc1ccccc1	inconclusive [inhibitor, full curve, poor fit]	–
Cn1cnc([N+](=O)[O-])c1S(=O)(=O)Oc1ccccc1	inconclusive [inhibitor, single point]	–
CC(C)(C)OC(=O)CC12CCCCC1NC(=O)O2 (stereo not drawn)	inactive	–
C=CCc1cccc(C=Nc2cccn3cc(-c4ccccc4)nc23)c1O	inactive	–
CCOC(=O)Nc1ccc2c(c1)N(C(=O)OCCN(C)C)c1ccccc1CC2	inconclusive [inhibitor, single point]	–
CCOC(=O)c1ccc(NC(=S)N2CCCC(C)C2)cc1 (stereo not drawn)	inconclusive [inhibitor, single point]	–
Cc1ccc(NC(=S)Nc2cc(-c3ccccc3)[nH]n2)cc1Cl	inactive	–
CCN(CC)CCCN1CC(O)=C(c2nc3ccccc3s2)C1=N	active: 11.2 µM	–
CCC(C(=O)OCc1cc(=O)n2nc(C)sc2n1)c1ccccc1 (stereo not drawn)	inactive	–
O=C(O)CCCc1ccc2c(c1)CCc1ccccc1-2	inactive	–
Cc1ccc(OCC(=O)NCCc2c[nH]c3ccccc23)cc1	inconclusive [inhibitor, full curve, poor fit]	–
CC(C)N(C(=O)c1ccccc1-c1ccccc1)C(C)C	inconclusive [inhibitor, partial curve, poor fit]	–
CC1(C)CC(NC(=O)c2ccc(-c3ccc([N+](=O)[O-])cc3)o2)CC(C)(C)N1	inconclusive [inhibitor, partial curve, poor fit]	–
COc1ccc(-c2sc3ccccc3c2C#CC2(O)CCCCC2)cc1	inconclusive [inhibitor, partial curve, poor fit]	–

SMILES	Potency	activity change, negative = inhibition
Cc1ccc(N2CCN(C(=O)c3nn(C)c4c3CS(=O)(=O)c3ccccc3-4)CC2C)cc1 (stereo not drawn)	inconclusive [inhibitor, partial curve, poor fit]	–
CC(=O)Nc1ccc(OCCCN2CCC(C(O)(c3ccccc3)c3ccccc3)CC2)cc1	inactive	–
O=c1[nH]c2c(s1)C(c1ccccc1)C1C3CCC(C3)C1S2 (stereo not drawn)	active: 6.31 µM	–
Cc1oc(-c2cccc(Cl)c2)nc1CN1CCC(C(=O)NCc2ccco2)CC1	inconclusive [inhibitor, single point]	–
O=C(COc1ccccc1Cl)NCCC1=CCCCC1	inconclusive [inhibitor, single point]	–
Cc1cccc(NC(=O)Cn2c(=O)n(Cc3ccc4c(c3)OCO4)c(=O)c3ccccc32)c1	inactive	–
CCS(=O)(=O)c1c(Nc2ccc(F)c(Cl)c2)sc(C(=O)c2ccccc2)c1N	inactive	–
COc1ccc(N(CC(=O)Nc2cccc(N(C)S(C)(=O)=O)c2)S(=O)(=O)c2ccc(C)cc2)cc1	inconclusive [inhibitor, partial curve, poor fit]	–
O=[N+]([O-])c1ccc(CN2CCN(c3ccc([N+](=O)[O-])cc3)CC2)cc1	–	inconclusive: -65.6% [inhibitor]
O=C(NCc1ccccc1)C1=C[C@@H](c2ccccc2)C[C@@H](OCc2ccc(CO)cc2)O1	inconclusive [inhibitor, partial curve, poor fit]	–
CCc1nc2ccc(C(=O)NCc3ccc4c(c3)OCO4)cn2c1N(CC)Cc1cccc(Br)c1	inconclusive [inhibitor, single point]	–
CCCCCSc1nnc2c(n1)OC(c1ccc(C)s1)N(C(C)=O)c1ccccc1-2 (stereo not drawn)	inconclusive [inhibitor, partial curve, poor fit]	–
COc1ccc(C(=O)Nc2cccc(C(=O)N/N=C/c3ccc(OC)cc3OC)c2)cc1	inconclusive [inhibitor, partial curve, poor fit]	–
CC(=O)N1c2c(ccc3ccccc23)C(C)CC12CCCCC2 (stereo not drawn)	inconclusive [inhibitor, partial curve, poor fit]	–
Cc1c(Cl)cccc1N1CC(c2nc3ccccc3n2Cc2ccccc2F)CC1=O (stereo not drawn)	inconclusive [inhibitor, single point]	–
Cc1cccc(N2CCN(C(=O)Nc3ccc(F)cc3)CC2C)c1 (stereo not drawn)	inconclusive [inhibitor, single point]	–
CC1CCCN(S(=O)(=O)c2ccc(NC(=O)C3CCN(C(=O)C(C)(C)C)CC3)cc2)C1 (stereo not drawn)	inconclusive [inhibitor, single point]	–
COc1ccccc1NS(=O)(=O)c1cc(N/C(=N\S(=O)(=O)c2ccccc2)c2ccc(F)cc2)ccc1Cl	inconclusive [inhibitor, single point]	–
CC1CCCN(S(=O)(=O)c2ccc(S(=O)(=O)NC(C)c3cccs3)cc2)C1 (stereo not drawn)	inconclusive [inhibitor, single point]	–
Cc1cc(-n2c(C)cc(C(=O)CSc3ccc4c(c3)OCCO4)c2C)no1	inconclusive [inhibitor, full curve, poor fit]	–
O=C(NCCSCc1ccco1)Nc1cccc(Cl)c1	inconclusive [inhibitor, partial curve, poor fit]	–
